Measured values as given in PubChem BioAssay AID1458 (National Center for Advancing Translational Sciences (NCATS), 2008).
In all, about 210,000 compounds went through this assay and about 5,900 (2.8%) were called active. This list was built around the results that the source calls inconclusive (neither active nor inactive); the mix of calls is not that of the screen. The call rests on the fitted dose curve; in most records, active means well fitted activation curve with a large enough effect; inconclusive means small, poorly fitted or top-dose-only effect; inactive means no such curve, though single readings can be large or run the other way. Potencies of inconclusive entries are doubtful fits and often do not repeat.

test: qHTS Assay for Enhancers of SMN2 Splice Variant Expression; settings: HEK293 SMN2-luciferase splicing reporter, luminescence, 30-36 h; activity change, positive = activation: at 46.1 µM (top of the series); further: nearly all actives have a fitted effect of over 55% in size; on activity change, positive = activation: % of control where 0% means no effect
Method in brief: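 HEK293 cells carry an SMN2 […]–luciferase reporter in which exon 7 inclusion puts luciferase in frame. Cells were plated 10-12 h before compound addition, then incubated 30-36 h at 37C. ONE-Glo luminescence was read; sodium butyrate at 4.5 mM final served as control.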
Potency means the concentration at half of the fitted maximal effect; tags describe the fitted curve by direction and shape.

SMILES | Potency | activity change, positive = activation
CCn1c(-c2ccccc2)csc1=Nc1ccc(O)cc1 | inconclusive: 28.2 µM [activator, single point] | –
Cc1cc2ccccc2n1CCNC(=O)c1ccccc1F | inconclusive: 20 µM [activator, single point] | –
Cc1ccc(N2C(=O)[C@@H]3C(C(=O)C(c4ccccc4)c4ccccc4)=NN[C@@H]3C2=O)cc1 | – | inactive: -4.05%
COCCn1c(C)cc(C(=O)CSc2nc3ccccc3o2)c1C | active: 7.94 µM | –
CCCOc1ccccc1C1NC(=O)NC(C)=C1C(=O)OCCOC (stereo unspecified) | inconclusive: 17.8 µM [activator, single point] | –
COc1cccc(OCCNc2cc(Cl)ccc2[N+](=O)[O-])c1 | inconclusive: 35.5 µM [activator, single point] | –
Cc1ccc(NC(=O)/C(CN(C)C)=N\O)cc1 | inconclusive: 35.5 µM [activator, single point] | –
Fc1ccc(NC(=S)NCc2ccccc2Cl)cc1 | inconclusive: 4.47 µM [activator, full curve, poor fit] | –
CC(=O)c1cc2c(cc1NS(=O)(=O)c1ccc(C)cc1)OCCO2 | inconclusive: 3.55 µM [activator, full curve] | –
N#Cc1c(NC(=O)CN2CCOCC2)oc(-c2ccccc2)c1-c1ccccc1 | inconclusive: 3.55 µM [activator, single point] | –
CC1(C)CC(=O)C=C(NCc2ccccc2)C1 | – | inactive: -5.02%
CCCn1nnc(NC(=O)c2cc(Br)ccc2OC)n1 | inconclusive: 35.5 µM [activator, partial curve, poor fit] | –
Cc1ccccc1NC(=O)CCc1c(C)nc2c(c1C)c(=O)n(C)c(=O)n2C | – | inactive: 14.1%
CCOC(=O)C1C(=O)CC(C)(O)C(C(=O)OCC)C1c1ccc(N(CC)CC)cc1 (stereo unspecified) | inconclusive: 5.62 µM [activator, single point] | –
Cc1nc2ccc(CCO)cc2s1 | – | inactive: -0.216%
Cn1ccnc1SCC(=O)Nc1ccc2c(c1)OCO2 | – | inconclusive: 34.4% [activator]
CCOC(=O)c1ccc(NC(=O)c2nsc3ccccc23)cc1 | active: 5.62 µM | –
O=C(c1ccc(Cl)cc1)N1CCC(O)(CSc2ccc(Cl)cc2Cl)CC1 | – | inactive: -34.5%
CCOc1ccc(/C(O)=C2\C(=O)C(=O)N(c3cc(C)on3)C2c2ccccc2OC)cc1 (stereo unspecified) | inconclusive: 11.2 µM [activator, partial curve] | –
NC(CSS(=O)(=O)O)=N[C@@H]1C[C@H]2CC[C@@H]1C2 | – | inactive: -8.01% [at 9.22 µM]
COc1ccc(/C=C/C(=O)Oc2ccc(/C=N/NC(=O)c3ccccc3)cc2)cc1OC | inconclusive: 22.4 µM [activator, single point] | –
COc1ccc(-c2nc(C#N)c(N3CCC(C(N)=O)CC3)o2)cc1 | – | inactive: -9%
Cc1ccccc1-c1nnc(SCC(=O)N2CCCc3ccccc32)o1 | – | inactive: -11.3%
Cc1ccc(CCN2CC(C(=O)O)CC2=O)cc1 (stereo unspecified) | inconclusive: 6.31 µM [activator, single point] | –
CCOc1ccc(OCc2ccc(C(=O)Nc3ccc(Cl)cn3)o2)cc1 | active: 17.8 µM | –
O=C(Nc1ccc(F)cc1)C1CCCO1 (stereo unspecified) | – | inactive: 0.004%

SMILES | Potency | activity change, positive = activation
CC1CCCN(c2ccc3nc4ccccc4c(=O)n3n2)C1 (stereo unspecified) | active: 1.26 µM | –
S=C(NCCCc1ccccc1)Nc1ccccc1Cl | inconclusive: 17.8 µM [activator, partial curve] | –
CCOc1ccccc1NC(=O)C(=O)N/N=C/c1cc(Br)ccc1O | – | inactive: -82.3%
CCCC(=O)Nc1cccc(-c2nc3ncccc3o2)c1 | active: 3.55 µM | –
C=CCN1C(=O)NC(c2ccc(OC)cc2)(C(F)(F)F)S/C1=C(\C#N)c1nnc(N2CCOCC2)n1-c1ccccc1 (stereo unspecified) | inconclusive: 0.708 µM [activator, full curve, poor fit] | –
CCc1ccc(-c2ccc(C(=O)O)cc2)nc1 | inconclusive: 35.5 µM [activator, single point] | –
CCOc1ccc(OCCn2nnc3ccccc3c2=O)cc1 | active: 15.8 µM | –
Cc1ccc(C(=O)Nc2cc3cc(Cl)ccc3oc2=O)cc1 | inconclusive: 11.2 µM [activator, partial curve] | –
O=C(NC1=NCCS1)c1ccncc1 | – | inactive: 6.52%
Cc1ccc(C(=O)CSc2nnc(COc3cccc(C)c3)o2)cc1 | inconclusive: 5.62 µM [activator, single point] | –
Cn1c(=O)cc(SCC(=O)N2CCOCC2)c2ccc(Cl)cc21 | inconclusive: 15.8 µM [activator, single point] | –
CCOC(=O)c1ccc(NCn2c(=O)oc3ccccc32)cc1 | inconclusive: 31.6 µM [activator, single point] | –
Cn1c(=O)n(C)c2cc(NC(=O)C(F)(F)F)ccc21 | inconclusive: 0.0056 µM [activator, full curve, poor fit] | –
CSc1nc(/C=C2\C=Nc3ccccc32)c(O)n1C | inconclusive: 11.2 µM [activator, single point] | –
Fc1ccccc1Nc1nc2c(s1)CCc1ccccc1-2 | inconclusive: 5.01 µM [activator, partial curve, poor fit] | –
Cc1c(C(=O)Nc2nc3ccccc3[nH]2)oc2c(Cl)cccc12 | inconclusive: 0.794 µM [activator, full curve] | –
O=C(/C=C/c1ccc2c(c1)OCO2)NCC1CCCO1 (stereo unspecified) | inconclusive: 10 µM [activator, partial curve] | –
CCCn1c(C)nc2c(N3CCC(N4CCN(C)CC4)CC3)nc(C)nc21 | – | inactive: 10.4%
Cc1ccc(NC(=O)Cn2nc(C)cc2C)cc1 | inconclusive: 5.62 µM [activator, single point] | –
Cc1nc(N2CCOCC2)c2nc(-c3ccccc3)n(CCN3CCCCC3)c2n1 | – | inactive: -3.24%
C/C(=N/NC(=O)c1ccoc1C)c1ccc(NC(=O)c2ccncc2)cc1 | inconclusive: 8.91 µM [activator, partial curve] | –
COC(=O)Nc1ccc(NC(C)=O)cc1 | inconclusive: 10 µM [activator, partial curve] | –
O=C(Nc1ccc(NC(=S)NC(=O)c2ccccc2F)cc1)c1cccs1 | – | inactive: 16.8%
CCOc1ccc2nc(NC(=O)c3ccoc3C)sc2c1 | active: 2.51 µM | –
O=C(NCCc1cn2ccccc2n1)C1CCCCC1 | inconclusive: 2.24 µM [activator, partial curve, poor fit] | –
O=C1C2CC=CCC2C(=O)N1c1n[nH]c(Cc2ccccc2)n1 (stereo unspecified) | inconclusive: 0.891 µM [activator, partial curve] | –

SMILES | Potency | activity change, positive = activation
CCOC(=O)C(=O)CC(=O)c1ccc2c(c1)OCCO2 | inconclusive: 12.6 µM [activator, partial curve, poor fit] | –
COc1ccc(OC)c(S(=O)(=O)Nc2ccc(C(N)=O)cc2)c1 | inconclusive: 7.94 µM [activator, partial curve, poor fit] | –
CC1CCOC(c2coc3ccccc3c2=O)O1 (stereo unspecified) | active: 10 µM | –
CC(=O)C1=C(C)N(Cc2ccco2)C(=O)N[C@@H]1c1ccccc1 | – | inactive: 1.6%
Cc1cc(SCC(=O)Nc2nsc(-c3ccc(C(C)(C)C)cc3)n2)nc2ccccc12 | active: 14.1 µM | –
CCOc1cccc(C(=O)Nc2nnc(-c3cccs3)s2)c1 | active: 12.6 µM | –
COc1ccc(-c2ccc(SCC(=O)Nc3nnc(C)s3)nn2)cc1 | inconclusive: 12.6 µM [activator, partial curve] | –
CN(C)CCSc1nnc(-c2ccccc2)o1 | active: 10 µM | –
Cc1nc2ccc(NC(=O)N3CCCCC3)cc2s1 | inconclusive: 10 µM [activator, partial curve, poor fit] | –
CCC(=O)N/N=C/c1ccc(OS(=O)(=O)c2ccccc2)cc1 | inconclusive: 0.178 µM [activator, single point] | –
O=[N+]([O-])c1cnccc1Nc1cccc(F)c1 | – | inactive: -15.6%
COc1cccc(NC(=O)CN(c2cccc(F)c2)S(C)(=O)=O)c1 | inconclusive: 3.16 µM [activator, partial curve] | –
O=C(c1ccc2c(c1)N(Cc1ccccc1F)C(=O)c1ccccc1S2(=O)=O)N1CCc2ccccc21 | – | inactive: 13.2%
O=C(CSc1n[nH]c(-c2ccccc2)n1)c1ccccc1 | inconclusive: 11.2 µM [activator, partial curve, poor fit] | –
O=C(OCC#CCSc1nc2ccccc2o1)c1cc2ccccc2o1 | inconclusive: 17.8 µM [activator, partial curve, poor fit] | –
Cc1ccn2c(c1)nc(=S)n2C(=O)c1ccco1 | active: 17.8 µM | –
O=C(CN1CC(c2ccccc2)CC1=O)OCc1ccccc1F (stereo unspecified) | inconclusive: 8.91 µM [activator, partial curve, poor fit] | –
CCOC(=O)c1cccc(NC(=O)C(NS(=O)(=O)c2ccc3c(c2)CCN3C(C)=O)C(C)C)c1 (stereo unspecified) | – | inconclusive: 32.1% [activator]
Cc1ccc(NC(=O)CN(C)C(=S)NC2CC2)cc1 | – | inactive: 8.56%
CN(C(=O)/C=C/c1ccc2c(c1)OCO2)c1ccccc1 | inconclusive: 0.0063 µM [activator, full curve, poor fit] | –
O=C(/C=C/c1ccco1)Nc1cccc(NC(=O)/C=C/c2ccco2)n1 | inconclusive: 11.2 µM [activator, partial curve, poor fit] | –
Cc1cccc2cc(CN(Cc3ccco3)C(=O)c3ccncc3)c(=O)[nH]c12 | – | inactive: -27.1%
CC(=O)Nc1cc2c(cc1C(=O)c1ccc(C)cc1)OCCO2 | – | inactive: -17.4%
COc1ccc2cc3cc(C(=O)Nc4cc(C)c(Cl)cc4OC)oc3nc2c1 | inconclusive: 3.55 µM [activator, single point] | –
